Measured values: PubChem BioAssay AID1347073 (National Center for Advancing Translational Sciences (NCATS), 2019)
Among all 45,000 compounds or so, about 200 (0.44%) were called active. This list was built around the results that the source calls inconclusive (neither active nor inactive); the mix of calls is not that of the screen. Calls come from the whole dose curve; as a rule, active = well fitted activation curve with a large enough effect; inconclusive = small, poorly fitted or top-dose-only effect; inactive = no such curve, though single readings can be large or run the other way. Potencies beside an inconclusive call are fits to weak or partial responses and may not hold up.

Assay: qHTS of TDP-43 Inhibitors: NCGC Sytravon Library Screen; note: nearly all actives have a fitted effect of over 55% in size; for growth rescue (activation): 0% is about no effect
Details: yeast TDP-43 toxicity rescue, BacTiter-Glo growth, 24 h; growth rescue (activation): at 46.1 µM (top of the series)
Outline: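 TDP-43-expressing yeast, pregrown in raffinose, seeded at OD600 0.02 in galactose medium with compound for 24 hr at 30 deg C. Growth read by BacTiter-Glo luminescence, so rescue of toxicity appears as activation.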
Potency is the fitted concentration of half-maximal effect; tags give direction and shape of the fitted curve.

Row | Compound | Potency | growth rescue (activation)
1 | COC(=O)C1CCN(C2CC(=O)N(c3cc(C)cc(C)c3)C2=O)CC1 (configuration not stated) | inconclusive: 35.5 µM [activator, single point] | 
2 | Cn1c(Oc2ccc(F)cc2F)c(C=O)c2ccccc21 | inconclusive: 14.1 µM [activator, single point] | 
3 | COc1ccc(C/C(C)=N/NC(=S)Nc2ccc(C(C)C)cc2)cc1 | inconclusive: 10 µM [activator, partial curve, poor fit] | 
4 | Cc1cc(Cl)ccc1OC(C)C(=O)Nc1ccc([N+](=O)[O-])cn1 (configuration not stated) | active: 22.4 µM | 
5 | OC1CCCN(CC(O)COc2ccc(-c3ccccc3)cc2)C1 (configuration not stated) | inactive | 
6 | CCCNS(=O)(=O)c1cc(-c2nnc3c4ccccc4c(C)nn23)ccc1OC | inactive | 
7 | CC1(Cc2cc(Cl)ccc2C(F)(F)F)C(=O)Nc2ccc(OC(F)(F)F)cc21 (configuration not stated) | inconclusive: 14.1 µM [activator, single point] | 
8 | O=C(Oc1ccc(N(C(=O)c2ccncc2)S(=O)(=O)c2cccs2)cc1)c1ccncc1 | inconclusive: 35.5 µM [activator, single point] | 
9 | CC(C)Oc1ccc(C(CC(=O)O)c2ccc(F)cc2)cc1 (configuration not stated) | inconclusive: 11.2 µM [activator, partial curve, poor fit] | 
10 | O=S(=O)(c1cccs1)N1CN(Cc2ccco2)c2nc3ccccc3nc21 | inconclusive: 12.6 µM [activator, partial curve, poor fit] | 
11 | COC(=O)c1c(NC(=O)/C=C/c2ccc(OC)c(OC)c2)sc2c1CCC2 | inactive | 
12 | CC(C)Sc1nc2sccc2c(=O)n1-c1ccccc1 | inconclusive: 11.2 µM [activator, single point] | 
13 | O=C(O)c1ccc2c(=O)n(-c3ccc(F)c(Cl)c3)c(=S)[nH]c2c1 | inconclusive: 35.5 µM [activator, single point] | 
14 | N#C/C(=C/c1cccs1)c1nc2ccccc2[nH]1 | inconclusive: 35.5 µM [activator, single point] | 
15 | NC(=O)c1ccc(Oc2ccc3c(c2)CCC3)c([N+](=O)[O-])c1 | inconclusive: 20 µM [activator, partial curve, poor fit] | 
16 | C/C(=N\NC(N)=S)C1C2C3CC4C5CC(C42)C1C53 (configuration not stated) | inconclusive: 12.6 µM [activator, partial curve, poor fit] | 
17 | CCOC(=O)c1cc(C#N)c(SCC(=O)Nc2ccc(C(C)=O)cc2)[nH]c1=O | inconclusive: 35.5 µM [activator, partial curve, poor fit] | 
18 | Cc1ccc(NC(=O)CN(C)C(=O)Cc2c(Cl)cccc2Cl)cc1 | inconclusive: 11.2 µM [activator, partial curve] | 
19 | O=C(c1cc2cc(Br)ccc2o1)N1CCCCC1 | inconclusive: 12.6 µM [activator, partial curve] | 
20 | Cc1ccc(-n2c(SCC(=O)Nc3c(C)cccc3C)nc(O)c(C)c2=O)cc1 | inactive | 
21 | FC(F)(F)c1cnc2c(c1)Nc1ccccc1S2 | inconclusive: 10 µM [activator, partial curve, poor fit] | 
22 | CCOC(=O)c1sc(=S)n(-c2ccccc2Cl)c1C | inconclusive: 12.6 µM [activator, partial curve, poor fit] | 
23 | Cc1ccc(C(=O)N2CCN(S(=O)(=O)c3cc(Br)ccc3Br)CC2)o1 | active: 14.1 µM | 

Row | Compound | Potency | growth rescue (activation)
24 | CCc1nc2ccc(C(=O)NCCCN3CCCC3=O)cn2c1N(CC)Cc1cccc(Br)c1 | inactive | 
25 | Fc1ccc(-c2csc(N3CCOCC3)n2)cc1 | inactive | 
26 | COc1cccc(C2C=C(c3ccc(OC)cc3OC)Nc3nnnn32)c1 (configuration not stated) | inconclusive: 10 µM [activator, partial curve] | 
27 | N#Cc1ccc(C(=O)Nc2ccn(-c3ccccc3)n2)cc1 | inconclusive: 14.1 µM [activator, partial curve] | 
28 | COc1ccccc1-c1cn[nH]c1-c1ccc(OCc2ccccc2)cc1O | inconclusive: 35.5 µM [activator, single point] | 
29 | Cc1ccc(-c2[nH]ncc2C(=O)c2ccc(Br)cc2)c(O)c1 | inconclusive: 11.2 µM [activator, partial curve] | 
30 | COC(=O)c1cc(Br)c(=O)n(-c2nccs2)c1 | inconclusive: 8.91 µM [activator, partial curve, poor fit] | 
31 | S=C(Nc1ccccc1)Nc1nc2ccccc2n1CCOc1ccc(Cl)cc1 | inconclusive: 12.6 µM [activator, partial curve] | 
32 | Cc1csc(NC(=O)C2CCN(S(=O)(=O)c3ccccc3)CC2)n1 | inconclusive: 35.5 µM [activator, single point] | 
33 | C/C(=N\NC(=S)NCc1ccccc1)c1ccccc1 | inconclusive: 11.2 µM [activator, partial curve] | 
34 | N#CC(C#N)=NNc1ccc([N+](=O)[O-])cc1 | inconclusive: 12.6 µM [activator, partial curve, poor fit] | 
35 | Nc1nnc(CC(=O)N/N=C\c2cc([N+](=O)[O-])ccc2O)s1 | inconclusive: 3.55 µM [activator, full curve] | 
36 | CC1(Cc2ccc(F)cc2)C(=O)Nc2c(Cl)ccc(Cl)c21 (configuration not stated) |  | inconclusive: 34.8% [activator]
37 | COc1cc(/C=C/C(=O)OC(C)C(=O)Nc2ccc(Cl)cn2)ccc1OC(F)F (configuration not stated) | inactive | 
38 | O=C(c1cnn(-c2cccc(F)c2)c1)c1ccccc1O | inconclusive: 11.2 µM [activator, partial curve, poor fit] | 
39 | Cc1ccc(S(=O)(=O)N2CCCC2C(=O)OCc2ccccc2)cc1 (configuration not stated) | inconclusive: 35.5 µM [activator, single point] | 
40 | CC1Cc2ccccc2N1C(=O)c1ccc(N2CCCC2)c([N+](=O)[O-])c1 (configuration not stated) | inconclusive: 15.8 µM [activator, partial curve, poor fit] | 
41 | COCCNC(=O)C1(C)CCN(Cc2cccc(Oc3ccccc3)c2)C1 (configuration not stated) | inactive | 
42 | O=C(NC(=S)Nc1ccc(N2CCOCC2)cc1)c1cncc(Br)c1 | inconclusive: 35.5 µM [activator, partial curve, poor fit] | 
43 | Cc1ccc(SCC(=O)NNC(=O)c2ccc(S(C)(=O)=O)cc2)cc1 | inactive | 
44 | Cc1ccc(Cc2nc(-c3cccnc3)no2)cc1 | inconclusive: 20 µM [activator, single point] | 
45 | Cc1ccc(S(=O)(=O)Nc2ccc3c(c2)nc(CCN2CCCCC2)n3C)cc1 | inconclusive: 11.2 µM [activator, partial curve, poor fit] | 
46 | O=S(=O)(Nc1ccc2c(c1)OCCO2)c1c(F)cccc1F | inactive | 

Row | Compound | Potency | growth rescue (activation)
47 | S=C(NCC1CCCO1)NC1CCCC1 (configuration not stated) | inactive | 
48 | O=C(COc1c(F)c(F)c(C(F)(F)F)c(F)c1F)Nc1ccc(N2CCOCC2)c(Cl)c1 | active: 12.6 µM | 
49 | Cc1ccc(C)c(C(O)c2ncc(-c3ccccc3)[nH]2)c1 (configuration not stated) | inactive | 
50 | O=C(Nc1cccc2c1CCCC2)c1cc(C2CCCCN2C(=O)OCCF)on1 (configuration not stated) | inconclusive: 35.5 µM [activator, partial curve, poor fit] | 
51 | Cc1ccc(C(=O)O)cc1N=Cc1cc(Br)cc(Br)c1O | inconclusive: 35.5 µM [activator, single point] | 
52 | CC(=O)NC(CC(=O)Nc1ccc(S(=O)(=O)N2CCOCC2)cc1)c1ccccc1 (configuration not stated) | inactive | 
53 | CN(C)c1ccc(CC(=O)N2CCCC(c3cc(C(=O)Nc4ccc(C(C)(C)C)cc4)no3)C2)cc1 (configuration not stated) | inconclusive: 35.5 µM [activator, partial curve, poor fit] | 
54 | CC(C)N1CCC(C)(C(=O)Nc2cccc3c2CCCC3)C1 (configuration not stated) | inactive | 
55 | O=C(c1ccccc1)c1ccc(C(=O)N2CCN(c3ccc(F)cc3)CC2)o1 | inconclusive: 31.6 µM [activator, single point] | 
56 | Cc1ccc(C(=O)N/N=C2/NC(=O)CC(C(=O)Nc3ccccc3)S2)cc1 (configuration not stated) | inconclusive: 6.31 µM [activator, partial curve] | 
57 | CN1/C(=C/C(=S)NC(=O)C2(C)CC2(Cl)Cl)C(C)(C)c2ccccc21 (configuration not stated) | inconclusive: 10 µM [activator, partial curve, poor fit] | 
58 | Cc1cccc(N=Nc2c(C)nn(-c3ccccc3)c2N)c1C | inconclusive: 25.1 µM [activator, partial curve, poor fit] | 
59 | COC(=O)c1cc(-c2ccc(Br)cc2)n[nH]1 | inconclusive: 3.98 µM [activator, full curve] | 
60 | Cc1nc2sc(C#N)c(N)c2c2c1CCCC2 | inconclusive: 14.1 µM [activator, partial curve, poor fit] | 
61 | O=C(COC(=O)CSc1ccc2ccccc2c1)NC1CC1 | inconclusive: 31.6 µM [activator, partial curve, poor fit] | 
62 | CCN1CCCc2cc(CN(CCN3CCOCC3)C(=S)Nc3cccc(C)c3)ccc21 | inconclusive: 31.6 µM [activator, single point] | 
63 | CC(C)(C)OC(=O)NC(Cc1ccccc1)C(=O)NCCCC(=O)O (configuration not stated) | inconclusive: 12.6 µM [activator, single point] | 
64 | Cc1onc(-c2c(F)cccc2Cl)c1C(=O)NC(=S)NC1CCSC1=O (configuration not stated) | inconclusive: 14.1 µM [activator, partial curve, poor fit] | 
65 | Oc1ccc(Cl)cc1C(C#Cc1ccccc1)N1CCOCC1 (configuration not stated) | inconclusive: 14.1 µM [activator, single point] | 
66 | COc1cc(OC)cc(C(=O)NCCSC2CCCCC2)c1 | inconclusive: 15.8 µM [activator, single point] | 
67 | COc1cc(NC(=S)Nc2ccccn2)cc(OC)c1 | inconclusive: 12.6 µM [activator, partial curve, poor fit] | 
